In general, IC50 refers to the midpoint of a concentration-inhibition curve.

The subject of test [1] is RS4;11 cells.
Test [2] deals with Molt-4 cells.
The mark [3] stands for this setting: read-out: Cellular activity (IC50, nM) RS4;11.
[4] abbreviates: read-out: Cellular activity (IC50, nM) Molt-4.

Like-named read-outs stand apart in the source and are kept apart here. Where only a bound is given, the exact number is not on record here.

As to `O=C(NS(=O)(=O)c1ccc(NCC2CCOCC2)c([N+](=O)[O-])c1)c1ccc(N2CCC3(CCC(N4CCC[C@H]4c4ccccc4C4CC4)C3)CC2)cc1Oc1cnc2[nH]ccc2c1` (single isomer, unassigned) [Example F39b, (R or S) 2-((1H-pyrrolo[2,3-b]pyridin-5-yl)oxy)-4-(2-((S)-2-(2-cyclopropylphenyl)pyrrolidin-1-yl)-8-azaspiro[4.5]decan-8-yl)-N-((3-nitro-4-(((tetrahydro-2H-pyran-4-yl)methyl)amino)phenyl)sulfonyl)benzamide], the IC50 is 105 nM in test [1] (setting [3]) and greater than 10000 nM in test [2] (setting [4]).

Take `O=C(NS(=O)(=O)c1ccc(NC[C@@H]2COCCO2)c([N+](=O)[O-])c1)c1ccc(C2=CCC(N3CCC[C@H]3c3ccccc3C3CC3)CC2)cc1Oc1cnc2[nH]ccc2c1` (single isomer, unassigned) [Example G9-b, (S or R)—N-((4-((((R)-1,4-dioxan-2-yl)methyl)amino)-3-nitrophenyl)sulfonyl)-3-((1H-pyrrolo[2,3-b]pyridin-5-yl)oxy)-4′-((S)-2-(2-cyclopropylphenyl)pyrrolidin-1-yl)-2′,3′,4′,5′-tetrahydro-[1,1′-biphenyl]-4-carboxamide]: the IC50 stood at 28 nM in test [1] (read-out: Celluclar activity (IC50, nM) RS 4, 11); 28 nM in test [1] (setting [3]); 6450 nM in test [2] (read-out: Celluclar activity (IC50, nM) Molt-4); 6450 nM in test [2] (setting [4]).

For `CCc1c(Cl)cccc1C1CCCN1C1CC2(CCN(c3ccc(C(=O)NS(=O)(=O)c4ccc(NCC5CCOCC5)c([N+](=O)[O-])c4)c(Oc4cnc5[nH]ccc5c4)c3)CC2)C1` (single isomer, unassigned) [Example F74b, (S or R)-2-((1H-pyrrolo[2,3-b]pyridin-5-yl)oxy)-4-(2-(2-(3-chloro-2-ethylphenyl)pyrrolidin-1-yl)-7-azaspiro[3.5]nonan-7-yl)-N-((3-nitro-4-(((tetrahydro-2H-pyran-4-yl)methyl)amino)phenyl)sulfonyl)benzamide], the IC50 stood at 12 nM in test [1] (setting [3]) and 4140 nM in test [2] (setting [4]).

In the case of `CN(C)C1CCCN(c2ccccc2C2CCCN2c2ccc(-c3ccc(C(=O)NS(=O)(=O)c4ccc(NCC5CCOCC5)c([N+](=O)[O-])c4)c(Oc4cnc5[nH]ccc5c4)c3)cc2)C1` (single isomer, unassigned) [Example A118a, 3-((1H-pyrrolo[2,3-b]pyridin-5-yl)oxy)-4′-(2-(2-(3-(dimethylamino)piperidin-1-yl)phenyl)pyrrolidin-1-yl)-N-((3-nitro-4-(((tetrahydro-2H-pyran-4-yl)methyl)amino)phenyl)sulfonyl)-[1,1′-biphenyl]-4-carboxamide], the values for the IC50 in test [1] (setting [3]) and in test [2] (setting [4]) were 3.7 nM and 979 nM, respectively.

With `O=C(NS(=O)(=O)c1ccc(NCC2CCOCC2)c([N+](=O)[O-])c1)c1ccc(N2CCC3(CC2)CC(N2CCCC2c2cccc(Cl)c2C2CC2)C3)cc1Oc1cnc2[nH]ccc2c1` (single isomer, unassigned) [Example F72b, (S or R)-2-((1H-pyrrolo[2,3-b]pyridin-5-yl)oxy)-4-(2-(2-(3-chloro-2-cyclopropylphenyl)pyrrolidin-1-yl)-7-azaspiro[3.5]nonan-7-yl)-N-((3-nitro-4-(((tetrahydro-2H-pyran-4-yl)methyl)amino)phenyl)sulfonyl)benzamide], the IC50 in test [1] (setting [3]) was found to be 42 nM; in test [2] (setting [4]), 4300 nM.

The values are drawn from patent publication US11420968B2 (priority 2018, dated 2022).
